According to article doi:10.1101/2022.06.07.495003 (bioRxiv, 2022):

Molecular target: the molecule itself
Experiment: fluorescence intensity fluctuation

B1: EphA2-eYFP (receptor)
chain: [sequence of about 500 residues omitted]IGGVAVGVVLLLVLAGVGFFIHRRRKNQRARQSPEDVYFSKSEQLKPLKTYVDPHTYEDPNQAVLKFTTEIHPSCVTRQKVIGAGEFGEVYKGMLKTSSGKKEVPVAIKTLKAGYTEKQRVDFLGEAGIMGQFSHHNIIRLEGVISKYKPMMIITEYMENGALDKFLREKDGEFSVLQLVGMLRGIAAGMKYLANMNYVHRDLAARNILVNSNLVCKVSDFGLSRVLEDDPEATYTTSGGKIPIRWTAPEAISYRKFTSASDVWSFGIVMWEVMTYGERPYWELSNHEVMKAINDGFRLPTPMDCPSAIYQLMMQCWQQERARRPKFADIVSILDKLIRAPDSLKTLADFDPRVSIRLPSTSGSEGVPFRTVSEWLESIKMQQYTEHFMAAGYTAIEKVVQMTNDDIKRIGVRLPGHQKRIAYSLLGLKDQVNTVGIPI
  stoichiometry N: 2
